Assay results published in the supplement of paper PMC11417369.
± gives the standard deviation of the averaged measurements. The list shows a part of the results.

System: PfAP2-G AP2 domain (GST-tagged)
Experiment: gcPBM binding intensity (ln(normalized median fluorescence intensity)); higher = stronger DNA binding
Outline: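 Each value is the highest Masliner-normalised natural-log median intensity across replicate spots of either orientation of a probe. The probes were primer-extended double-stranded 36-bp intergenic genomic sequences on an Agilent 4 × 180k array, alongside negative controls, exposed for 1 h to GST-tagged P. falciparum DNA-binding domains expressed in E. coli. Bound protein was picked up with Alexa488 anti-GST antibody and scanned at 488 nm.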

Sequence | gcPBM binding intensity (ln)
CTTTTTTCAAAACACACACACAAGAAAATATATATA [CACACA_site3109] | 10.3 ± 0.35
TTTTTTTTTTTTGTGCGTACATACCATTTTAATAAT [XGTACX_site2760] | 11.6 ± 0.92
AATGAGGATATATACACACATACATTAAAAAAATAT [CACACA_site1849] | 9.93 ± 0.014
AAAAAAAAAAAAAAAAGGGGGGGAGGGATTGAAAAA [CACACA_negctrl_site193] | 11.3 ± 0.71
ACAGTATTTCGAGATGGTACACATATATATATATAT [XGTACX_site6880] | 11.2 ± 0.81
TGATAAATATGGAGCACACACACATAAACATACATA [CACACA_site420] | 10.3 ± 0.18
TTTAAAAGATAAAACACACATACTAATAAAAAACAA [CACACA_site2556] | 10.03 ± 0.042
TTGTATCCTTAATGCATGCACCAAATAACAAAAGTA | 10.2 ± 0.34
TTGTTGTATTATTTATGTACATATGTATATGTATAT [XGTACX_site1315] | 11.3 ± 0.59
ATGAGTTACATGGGAAAAATATATATATATATATAT [CACACA_negctrl_site579] | 10 ± 0.34
ATTATAATTGCATATACACACAAAGGTTCATAACAA [CACACA_site7440] | 10.2 ± 0.2
ACATATATAAAATAATGTACATTTTTAAGAATGCGT [XGTACX_site7654] | 11.1 ± 0.54
ATATTAATATACATATGTACATATATATATATATAT [XGTACX_site7425] | 11.2 ± 0.62
TAAATTATTTATAAAGCACACAAGAAAAAATAAAAT [CACACA_site2132] | 10.2 ± 0.092
AAAATTTAATATAATGCACACATAAAAAAAAATTCA [CACACA_site8640] | 10 ± 0.3
TCCTGCCTCTCTTTGGTGCGTTGTAACCCTCGAGGA | 10.04 ± 0.057
CCAATACTGTTTAAATGTACAAGTAGGAGGTTAATT [XGTACX_site7260] | 10.8 ± 0.41
AAAAATTAACAAAAGGTGCAAACAAATAGTGGTTTT [GTGCAC_site9998] | 9.98 ± 0.085
TAAAGGCAAACAAACACACACACATATATACATATA [CACACA_site2123] | 10.1 ± 0.19
GTTATTCTTAATTTTTGTACACATTTTTATATTATT [XGTACX_site7227] | 11.4 ± 0.7
AAAAAAGTAAAAAGTGCATGTAAAATATAAGTATCT [TGCATGCA_site55] | 10.5 ± 0.23
TTTTTTTTTTATTTTGCACACTTCTAATTTAGTTGT [CACACA_site3429] | 10.2 ± 0.21
ATATATATGTATATGTGTACTTATATTTGTCATTTT [XGTACX_site1317] | 11.4 ± 0.95

Sequence | gcPBM binding intensity (ln)
AAAAAAATTAAACACACACACACATATATATATATA [CACACA_site4718] | 10 ± 0.49
GAACAAAAGGAATGTTGTACATAAAAAATGAAAAAT [XGTACX_site3929] | 11.3 ± 0.66
AATAAATATATAAATACACACAAACATACAGATATA [CACACA_site6088] | 10.11 ± 0.014
TTTAAAAGATAAAGACTGCACTTTAAGCACACAAAT [GTGCAC_site9752] | 10.5 ± 0.38
AATTCCTATAATGAGAGTACGCATTAGAACAGTAGG [XGTACX_site5721] | 11.3 ± 1
AAATTGTAGAAGCGTATTTCTCGAACTGGATGAATA [CACACA_negctrl_site1373] | 10.095 ± 0.007
AATTAATGGAAACAAGTCAAATGATCTTTATGCATA [TGCATGCA_negctrl_site540] | 9.76 ± 0.2
AGTTTCCTTGAGAAAAGTACGTAATACTACATATAT [XGTACX_site818] | 11.2 ± 0.66
ATATGATATATTTTATGTACATATAAAACATATATA [XGTACX_site4297] | 11.3 ± 0.73
TTATACTTTTTTTCTTGGTGTAGAAAAAAAAGTTAG [CACACA_negctrl_site1207] | 10.3 ± 0.28
TTTATATTAGGTCTTGAACGATTTTCATCATTATTA [TGCATGCA_negctrl_site100] | 9.97 ± 0.15
AAAAAAGAAACAAACACACATACATACAAACAAACA [CACACA_site142] | 10.3 ± 0.28
TTTATATCGACTCTTCTTTATATAAGTTGTGATGTT [TGCATGCA_negctrl_site362] | 9.94 ± 0.042
TAAAGTGTAAAGAAGGTGCTCATTATTTATTTTTTT | 9.71 ± 0.13
AAAAACGAAAAAAATACACACCTGAAAAGATATGTA [CACACA_site4644] | 9.72 ± 0.16
GTATATATGTATATGTGTACATATATTTTATAATAT [XGTACX_site5703] | 11.3 ± 0.79
AAAAACCATTCGCACACACACATAATCTATAATATA [CACACA_site6782] | 10.2 ± 0.18
AAGTACCATATAGGCACACATATATATATATATATA [CACACA_site3282] | 10.3 ± 0.17
AGATCATAATATTATACACACATTATATATATGTAA [CACACA_site8419] | 10.015 ± 0.007
TGGAAAGTTATTAACACACACATATAAATATTTATA [CACACA_site6173] | 9.84 ± 0.099
GGAATAACCAGACACACACACACATATATATATATA [CACACA_site3541] | 10.2 ± 0.31
TATATATAATATTATACACACATATCTGCATAATAT [CACACA_site4202] | 9.99 ± 0.042
TCCAATTCTTTATTTTGTACACATTATGTGCATATG [XGTACX_site6290] | 11.3 ± 0.54

Sequence | gcPBM binding intensity (ln)
AAAAAAAAAAAAAAAACACACATTTATAGTATATAT [CACACA_site1194] | 10.2 ± 0.23
GATTTATTTCATATCACACATTTTGGCTATTTTGTG [CACACA_site5793] | 10.2 ± 0.078
CCATTTGGTATTATATGTACATATAATTTTTTTTTT [XGTACX_site157] | 11.2 ± 0.62
AATCCTTCATATGTAGTGCATATTAACAAAATAAAA [GTGCAC_site9500] | 10.3 ± 0.36
ATGAAATATTTATTTGTGCACTTAATTTGTTGGAAA | 10.4 ± 0.34
GTTGTTATATAAAGGAGTACATAATAACACAAATAT [XGTACX_site615] | 11.7 ± 1.2
TTTTCTTGTAGTATAACAAAATATAGTAATATATAT [GTGCAC_negctrl_site609] | 9.96 ± 0.15
TAGGAGAAAAAAAAAAGTACCCACAACTATTATACT [XGTACX_site8195] | 11.3 ± 0.73
TGGTAATATCGATTCACACATATCAAAATAAAAAAA [CACACA_site4196] | 9.96 ± 0.071
AACATATTAATGTACACACACCCACGCACAAACAAA [CACACA_site7320] | 11.5 ± 0.91
GCTATAAATACAGACGCACACATATACATACAGATA [CACACA_site5778] | 10.3 ± 0.32
TGTTATTAGAAAAATGCACACCAAAAAAAAAAAAAA [CACACA_site8802] | 10.1 ± 0.52
ATATACATAATATATAATATAAATATATATATGGAA [CACACA_negctrl_site906] | 9.37 ± 0.16
TATTAAAATATTTATACACACATAATTTTGATAAAT [CACACA_site4486] | 9.87
TGTCATTCCTCTTATTGTACAAAAATATTATAATAT [XGTACX_site1134] | 10.9 ± 0.56
TAATTAATTTACATTTTAATTTTATACAAAATTTAT [CACACA_negctrl_site830] | 9.745 ± 0.035
ACATATTTATATTCTACACACTTATACTATAATACA [CACACA_site7204] | 9.97 ± 0.057
GTTATACGCATCAACACACACATACAACGTGGTGTA [CACACA_site1188] | 10 ± 0.17
ATGGAACTTAAAAATTGTACACATAAAATGGAGAAG [XGTACX_site1823] | 11.5 ± 0.91
TTATAAGATTTATGTACACACATATACACAGCTCTA [CACACA_site6481] | 11.5 ± 0.93
TCCTAATGCTACCACACACACAAAAACAAATAATAA [CACACA_site2610] | 10.5 ± 0.57
TAAATGAAAATATGTACACACTTGAAAACTTTTATG [CACACA_site7388] | 11.4 ± 0.73
TGCAACAAAATAAACACACACACACTAGCACAAAAA [CACACA_site5805] | 10.2 ± 0.23

Sequence | gcPBM binding intensity (ln)
TTTTTTTTTTTAGACACATGCATTTTTATAATTTTC [TGCATGCA_site843] | 9.675 ± 0.078
AATATATATATTAAATGTACATTACATAATTATATA [XGTACX_site3450] | 10.9 ± 0.34
ATATGTATGTATGTCTCAAAATTTCATATTATATTA [CACACA_negctrl_site784] | 9.82 ± 0.085
TAGGATATTGAATAATGTACTTTATATATAATATAA [XGTACX_site7828] | 11 ± 0.73
AAGAAATAAAAAAAACGTACATATATACATACATAC [XGTACX_site3980] | 11.4 ± 0.93
TATATATATTAACTTGTGCGCAAAAAGATATAATTT [GTGCAC_site9672] | 10.4 ± 0.23
AATATTTTGATGTGTACACATTAATACAGTTTTACA [CACACA_site5711] | 11.7 ± 0.91
AAAAAAAAAAAAATACGTACACAAAAAATTGCAAAG [XGTACX_site5663] | 11.6 ± 0.81
AATATATTAAAAAAGCGTACAAGAATTGGAAAATGG [XGTACX_site6576] | 11.5 ± 0.85
GATATTTTTATTTGTTGTACTTAAGATAATAAATGA [XGTACX_site2891] | 11.3 ± 0.79
TGTATAACCTGTGTTACACACATTAAAATTTATATA [CACACA_site4449] | 9.91 ± 0.13
ATAAATGTGTTTATTTAACACACAAAAGAAAAAATA [CACACA_site8589] | 10.06 ± 0.064
AAAGGAAAAAAAGTAGCACACAAATATTTATAATAT [CACACA_site8772] | 10.3 ± 0.13
GTATCAAAAGAATACACACACACATACCTATAAATA [CACACA_site7737] | 10.2 ± 0.2
TAAATAAAAAAAAATACACACATCTATATAAAATAT [CACACA_site3774] | 9.7 ± 0.24
CATACATAAATATAAACATGCATATATTTTTTTTAT [TGCATGCA_site616] | 9.605 ± 0.035
TGATATCTTAAGAAATGTACAAAGATATAACCATTT [XGTACX_site1913] | 10.7 ± 0.31
ATTTTAATAAAATATGTACACACATACACCCATATA [CACACA_site8326] | 11.4 ± 0.96
AAAAAAAAAACACACACATGCACATCATATTATATA [TGCATGCA_site133] | 9.78 ± 0.14
TTATTTTTTCTTCAAATGTGAATTATTCATTTATTT [TGCATGCA_negctrl_site545] | 9.99 ± 0.12
